# Data from publication PMC10164914.
# Chains of the proteins cited; added tags and fusions are not shown.
# UniProt P30680: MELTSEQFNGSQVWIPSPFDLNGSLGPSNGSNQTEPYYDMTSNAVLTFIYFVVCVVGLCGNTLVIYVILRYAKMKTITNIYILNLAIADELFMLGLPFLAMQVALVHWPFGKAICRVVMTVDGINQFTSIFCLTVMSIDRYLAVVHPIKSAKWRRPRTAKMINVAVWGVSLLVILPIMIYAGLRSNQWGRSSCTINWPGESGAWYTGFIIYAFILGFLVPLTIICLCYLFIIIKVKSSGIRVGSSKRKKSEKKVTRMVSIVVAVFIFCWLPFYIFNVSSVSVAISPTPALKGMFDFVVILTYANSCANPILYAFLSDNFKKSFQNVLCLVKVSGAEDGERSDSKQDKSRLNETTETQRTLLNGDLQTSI
# UniProt P30874: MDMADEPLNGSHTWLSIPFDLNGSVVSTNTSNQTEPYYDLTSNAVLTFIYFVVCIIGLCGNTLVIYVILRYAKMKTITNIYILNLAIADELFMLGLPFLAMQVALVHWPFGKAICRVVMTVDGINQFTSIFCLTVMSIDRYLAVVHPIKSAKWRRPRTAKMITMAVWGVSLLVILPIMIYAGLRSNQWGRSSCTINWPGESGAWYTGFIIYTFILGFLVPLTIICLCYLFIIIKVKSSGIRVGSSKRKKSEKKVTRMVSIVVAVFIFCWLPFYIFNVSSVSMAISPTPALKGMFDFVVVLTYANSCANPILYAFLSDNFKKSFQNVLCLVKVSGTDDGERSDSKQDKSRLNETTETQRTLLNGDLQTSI
# Results are given in words; binding and its absence hold for the method and conditions named. Binding seen in cells or lysates may run through a third protein. Some binding calls cover weakened binding; strength is not graded here. For some assays here: Where a sequence is shown, tags or fusion partners need not be part of it.
# What was measured:
# [1] = molecular target: triple HA-epitope tagged WT rat Sstr2 (Somatostatin receptor 2) (rat) (UniProt P30680); test: proximity ligation; DuoLink PLA with HA and Flag antibodies in HEK293 cells transfected with HA-Sstr2 and Flag-Dvl1; fixed in 3% PFA; untreated, 100 nM octreotide for the times shown, or 100 nM PRL2915 for 30 min
# [2] = molecular target: triple HA-epitope tagged WT rat Sstr2 (Somatostatin receptor 2) (rat) (UniProt P30680); test: condition: only cells incubated overnight with the pan-Dvl PDZ domain inhibitor NSC668036; co-IP; as a1, but the transfected HEK293 cells were incubated overnight with the pan-Dvl PDZ domain inhibitor NSC668036 before lysis and immunoprecipitation of HA-Sstr2
# [3] = molecular target: triple HA-epitope tagged WT rat Sstr2 (Somatostatin receptor 2) (rat) (UniProt P30680); test: co-IP; HEK293 cells transfected with HA-Sstr2 and Flag-Dvl1; lysis in 50 mM Hepes pH 7.4, 150 mM NaCl with 2 mg/ml dodecyl β-maltoside and 0.2% Triton X-100; HA-Sstr2 precipitated with anti-HA agarose, 2 h at 4 °C; Western blot for Dvl1
# [4] = molecular target: endogenous Sstr2 (Somatostatin receptor 2) (human (endogenous in IMR32 and H69)) (UniProt P30874); test: co-IP; endogenous proteins from IMR32 and H69 cells; lysis buffer with 0.5% C12E8; lysates clarified with nonspecific rabbit IgG and Protein A-Sepharose; 1.5 μg rabbit anti-Sstr2 or rabbit IgG, 2 h at 4 °C; washes with NaCl at 175 mM; Western blot for Dvl1
# [5] = molecular target: endogenous Sstr2 (Somatostatin receptor 2) (human (endogenous in IMR32 and H69)) (UniProt P30874); test: proximity ligation; DuoLink PLA with mouse anti-Sstr2 and rabbit anti-Dvl1 on endogenous proteins in IMR32 cells; fixed in cold methanol; untreated, 100 nM octreotide for the times shown, or 100 nM PRL2915 for 30 min
binding [1],binding [2],binding [3],binding [4],binding [5],Binder
binds,no binding,binds,,,"Flag-tagged human Dvl1 (Dishevelled 1) (protein, UniProt O14640 1-695) MAETKIIYHMDEEETPYLVKLPVAPERVTLADFKNVLSNRPVHAYKFFFKSMDQDFGVVKEEIFDDNAKLPCFNGRVVSWLVLAEGAHSDAGSQGTDSHTDLPPPLERTGGIGDSRPPSFHPNVASSRDGMDNETGTESMVSHRRERARRRNREEAARTNGHPRGDRRRDVGLPPDSASTALSSELESSSFVDSDEDGSTSRLSSSTEQSTSSRLIRKHKRRRRKQRLRQADRASSFSSITDSTMSLNIVTVTLNMERHHFLGISIVGQSNDRGDGGIYIGSIMKGGAVAADGRIEPGDMLLQVNDVNFENMSNDDAVRVLREIVSQTGPISLTVAKCWDPTPRSYFTVPRADPVRPIDPAAWLSHTAALTGALPRYGTSPCSSAVTRTSSSSLTSSVPGAPQLEEAPLTVKSDMSAVVRVMQLPDSGLEIRDRMWLKITIANAVIGADVVDWLYTHVEGFKERREARKYASSLLKHGFLRHTVNKITFSEQCYYVFGDLCSNLATLNLNSGSSGTSDQDTLAPLPHPAAPWPLGQGYPYQYPGPPPCFPPAYQDPGFSYGSGSTGSQQSEGSKSSGSTRSSRRAPGREKERRAAGAGGSGSESDHTAPSGVGSSWRERPAGQLSRGSSPRSQASATAPGLPPPHPTTKAYTVVGGPPGGPPVRELAAVPPELTGSRQSFQKAMGNPCEFFVDIM"
,,,binds,binds,"endogenous Dvl1 (Dishevelled 1) (protein, UniProt O14640 1-695) MAETKIIYHMDEEETPYLVKLPVAPERVTLADFKNVLSNRPVHAYKFFFKSMDQDFGVVKEEIFDDNAKLPCFNGRVVSWLVLAEGAHSDAGSQGTDSHTDLPPPLERTGGIGDSRPPSFHPNVASSRDGMDNETGTESMVSHRRERARRRNREEAARTNGHPRGDRRRDVGLPPDSASTALSSELESSSFVDSDEDGSTSRLSSSTEQSTSSRLIRKHKRRRRKQRLRQADRASSFSSITDSTMSLNIVTVTLNMERHHFLGISIVGQSNDRGDGGIYIGSIMKGGAVAADGRIEPGDMLLQVNDVNFENMSNDDAVRVLREIVSQTGPISLTVAKCWDPTPRSYFTVPRADPVRPIDPAAWLSHTAALTGALPRYGTSPCSSAVTRTSSSSLTSSVPGAPQLEEAPLTVKSDMSAVVRVMQLPDSGLEIRDRMWLKITIANAVIGADVVDWLYTHVEGFKERREARKYASSLLKHGFLRHTVNKITFSEQCYYVFGDLCSNLATLNLNSGSSGTSDQDTLAPLPHPAAPWPLGQGYPYQYPGPPPCFPPAYQDPGFSYGSGSTGSQQSEGSKSSGSTRSSRRAPGREKERRAAGAGGSGSESDHTAPSGVGSSWRERPAGQLSRGSSPRSQASATAPGLPPPHPTTKAYTVVGGPPGGPPVRELAAVPPELTGSRQSFQKAMGNPCEFFVDIM"
